# Measurements reported in patent US11542275B2, “Substituted imidazolidin-2-one derivatives as PRMT5 inhibitors” (Aurigene Discovery Technologies Limited, priority 2018, dated 2023).
# System: Z138 cells
# Assay: Z138 cell proliferation assay (XTT)
# Type: cell-based
# Details: Homo sapiens, Z-138, 168 h, 7 day treatment, 9-point dose response starting with 10 μM, XTT read at 465 nm
# Protocol: Z138 cells were seeded in a 96-well round-bottom plate and treated with varying concentration of compound. The final DMSO concentration was maintained at 0.05%. The selected compounds of present invention were screened in a 9-point dose response format starting with 10 μM and 1/3rd serial dilution. On the 4th day, cells were spun down and media was replaced while maintaining the initial compound concentration in each well. At the end of the 7th day, cells were spun down and media was aspirated. 50 µL of XTT containing media was added to the wells. The plates were read using the M3 spectrophotometer at 465 nm. GI50 values were calculated by fitting the dose response data to sigmoidal curve fitting equation using GraphPad Prism software V7.
# The compounds were screened in the above mentioned assay procedures for determining IC50 and GI50 values in inhibiting PRMT5.
row,Compound,GI50 [nM]
1,"CC(=O)N1CCN(c2ccc(CN3CCN(C[C@H](O)CN4CCc5ccccc5C4)C3=O)nc2)C(C)C1 (stereo partly drawn) [Compound 21, 1-((5-(4-acetyl-2-methylpiperazin-1-yl)pyridin-2-yl)methyl)-3-((R)-3-(3,4-dihydroisoquinolin-2(1H)-yl)-2-hydroxypropyl)imidazolidin-2-one]",100 to 300
2,"CC(=O)N1C2CCC1CC(c1ccc(CN3CCN(C[C@H](O)CN4CCc5ccccc5C4)C3=O)cn1)C2 (stereo partly drawn) [Compound 73, 1-((6-(8-acetyl-8-azabicyclo[3.2.1]octan-3-yl)pyridin-3-yl)methyl)-3-((R)-3-(3,4-dihydroisoquinolin-2(1H)-yl)-2-hydroxypropyl)imidazolidin-2-one]",100 to 300
3,"O=C1N(Cc2ccc(N3C4COCC3C4)cn2)CCN1C[C@H](O)CN1CCc2ccccc2C1 [Compound 29, 1-((5-(3-oxa-6-azabicyclo[3.1.1]heptan-6-yl)pyridin-2-yl)methyl)-3-((R)-3-(3,4-dihydroisoquinolin-2(1H)-yl)-2-hydroxypropyl)imidazolidin-2-one]",100 to 300
4,"CC1COCCC1c1ccc(CN2CCN(C[C@H](O)CN3CCc4ccccc4C3)C2=O)nc1 (stereo partly drawn) [Compound 68, 1-((R)-3-(3,4-dihydroisoquinolin-2(1H)-yl)-2-hydroxypropyl)-3-((5-(3-methyltetrahydro-2H-pyran-4-yl)pyridin-2-yl)methyl)imidazolidin-2-one]",< 100
5,"CC(=O)N1CCC(c2ccc(CN3CCN(C[C@@H](O)CN4CCc5ccccc5C4)C3=O)nc2)CC1 [Compound 45, (S)-1-((5-(1-acetylpiperidin-4-yl)pyridin-2-yl)methyl)-3-(3-(3,4-dihydroisoquinolin-2(1H)-yl)-2-hydroxypropyl)imidazolidin-2-one]",100 to 300
6,"O=C(c1ncc(-c2ccc(CN3CCN(C[C@H](O)CN4CCc5ccccc5C4)C3=O)cn2)cn1)N1CCCC1 [Compound 103, (R)-1-(3-(3,4-dihydroisoquinolin-2(1H)-yl)-2-hydroxypropyl)-3-((6-(2-(pyrrolidine-1-carbonyl)pyrimidin-5-yl)pyridin-3-yl)methyl)imidazolidin-2-one]",100 to 300
7,"CC1(C(=O)N2CCC(c3ccc(CN4CCN(C[C@H](O)CN5CCc6ccccc6C5)C4=O)nc3)CC2)COC1 [Compound 53, (R)-1-(3-(3,4-dihydroisoquinolin-2(1H)-yl)-2-hydroxypropyl)-3-((5-(1-(3-methyloxetane-3-carbonyl)piperidin-4-yl)pyridin-2-yl)methyl)imidazolidin-2-one]",< 100
8,"CC(C)Oc1cc(-c2ccc(CN3CCN(C[C@H](O)CN4CCc5ccccc5C4)C3=O)cn2)ccn1 [Compound 67, (R)-1-(3-(3,4-dihydroisoquinolin-2(1H)-yl)-2-hydroxypropyl)-3-((2′-isopropoxy-[2,4′-bipyridin]-5-yl)methyl)imidazolidin-2-one]",< 100
9,"CCOC(=O)C(C)(C)C1CCN(c2ccc(CN3CCN(C[C@H](O)CN4CCc5ccccc5C4)C3=O)nc2)CC1 [Compound 13, ethyl(R)-2-(1-(6-((3-(3-(3,4-dihydroisoquinolin-2(1H)-yl)-2-hydroxypropyl)-2-oxoimidazolidin-1-yl)methyl)pyridin-3-yl)piperidin-4-yl)-2-methylpropanoate]",100 to 300
10,"CC(=O)N1CC(c2ccc(CN3CCN(C[C@H](O)CN4CCc5ccccc5C4)C3=O)nc2)C1 [Compound 79, (R)-1-((5-(1-acetylazetidin-3-yl)pyridin-2-yl)methyl)-3-(3-(3,4-dihydroisoquinolin-2(1H)-yl)-2-hydroxypropyl)imidazolidin-2-one]",< 100
11,"O=C1N(Cc2ccc(C3CCOCC3)nn2)CCN1C[C@H](O)CN1CCc2ccccc2C1 [Compound 51, (R)-1-(3-(3,4-dihydroisoquinolin-2(1H)-yl)-2-hydroxypropyl)-3-((6-(tetrahydro-2H-pyran-4-yl)pyridazin-3-yl)methyl)imidazolidin-2-one]",100 to 300
